Source: the supplement of paper PMC7125110
± gives the standard error. Variants at the floor of the assay are shown more often than the library holds them.

B1: glmS ribozyme (parent)
chain: AUAAAAGCGCCAGAACUACAGAAAUGUAGUUGACGAGGAGGAGGUUUAUCGAAUUUUCGGCGGAUGCCUCCAAA

How the values were obtained:
Settings in all cases: with glucosamine-6-phosphate
[1] = variants of: B1; experiment: self-cleavage kobs at 40 uM GlcN6P; higher = faster cleavage; RNA array
In short: (§1)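 E. coli RNA polymerase transcribed barcoded ribozyme variants in situ on sequenced MiSeq chips, which were tracked via a hybridised Cy3 probe at 37 °C. Tiles were imaged over ~14 h after glucosamine-6-phosphate (40 μM to 10 mM) in HEPES/KCl/Mg(OAc)2 buffer was flowed in. Normalised per-tile medians were fit to one- or two-exponential decays for kobs, and kcat and KM came from weighted Michaelis–Menten fits.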

[2] = variants of: B1; experiment: self-cleavage kobs at 640 uM GlcN6P; higher = faster cleavage; RNA array
In short: as §1

[3] = variants of: B1; experiment: self-cleavage kobs at 2500 uM GlcN6P; higher = faster cleavage; RNA array
In short: as §1

[4] = variants of: B1; experiment: self-cleavage kobs at 160 uM GlcN6P; higher = faster cleavage; RNA array
In short: as §1

[5] = variants of: B1; experiment: self-cleavage kobs at 10000 uM GlcN6P; higher = faster cleavage; RNA array
In short: as §1

Variant | self-cleavage kobs at 40 uM GlcN6P [1] | self-cleavage kobs at 640 uM GlcN6P [2] | self-cleavage kobs at 2500 uM GlcN6P [3] | self-cleavage kobs at 160 uM GlcN6P [4] | self-cleavage kobs at 10000 uM GlcN6P [5]
AUAAAAGCGCCAGAACUACAGAAAUGUAGUUUACGAGGAGGAGGUAUAUCGAAUUUUCGGCGGAUGCCUCCAAA [G32U U46A] | < 1e-05 s⁻¹ | – | – | – | –
AUAAAAGCGCCAGAACUACAGAAAUGUAGUUGCCGGGGAGGAGGUUUAUCGAAUUUUCGGCUGAUACCUCCAAA [A33C A36G G62U G66A] | < 1e-05 s⁻¹ | < 1e-05 s⁻¹ | < 1e-05 s⁻¹ | – | –
AUAAAAGCGCCAGAACUACAGAAAUGUAGUUGCCGAGGAGGAGGUUUAUCGAAUUUUCGGCGGUUGCCUCCAAA [A33C A64U] | < 1e-05 s⁻¹ | < 1e-05 s⁻¹ | < 1e-05 s⁻¹ | < 1e-05 s⁻¹ | –
AUAAAAGCGCCAGAACUACAGAAAUGUAGUUGCCGAGGAGGAGGUUUAUCGAAUUUUCGGCGGAUGCAUCCAAA [A33C C68A] | < 1e-05 s⁻¹ | – | – | – | –
AUAAAAGCGCCAGAACUACAGAAAUGUAGUUGCCGAGGAGGAGGUUUAUCGAAUUUUCGGCGGAUGCCUCUAAA [A33C C71U] | < 1e-05 s⁻¹ | – | – | < 1e-05 s⁻¹ | 4.08e-05 ± 1e-05 s⁻¹
AUAAAAGCGCCAGAACUACAGAAAUGUAGUUGCCGAGCAGGAGGUUUAUCGAAUUUUCGGCGGAUGCCUCCAAA [A33C G38C] | < 1e-05 s⁻¹ | – | – | – | –
AUAAAAGCGCCAGAACUACAGAAAUGUAGUUGCCGAGGAAGAGGUUUAUCGAAUUUUCGGCGGAUGGCUCCAAA [A33C G40A C67G] | < 1e-05 s⁻¹ | – | – | – | –
AUAAAAGCGCCAGAACUACAGAAAUGUAGUUGCCGAGGAUGAGGUUUAUCGAAUUUUCGGCGGAUGCCUCCAAA [A33C G40U] | < 1e-05 s⁻¹ | < 1e-05 s⁻¹ | < 1e-05 s⁻¹ | < 1e-05 s⁻¹ | –
AUAAAAGCGCCAGAACUACAGAAAUGUAGUUGCCGAGGAGGAGGUUUAUCCAAUUUUCGGCGGAUGCCUCCAAA [A33C G51C] | < 1e-05 s⁻¹ | < 1e-05 s⁻¹ | < 1e-05 s⁻¹ | < 1e-05 s⁻¹ | –
AUAAAAGCGCCAGAACUACAGAAAUGUAGUUGCCGAGGAGGAGGUUUAUCGAAUUUUCGGCGUAUGUCUCCAAA [A33C G63U C67U] | < 1e-05 s⁻¹ | – | – | – | –
AUAAAAGCGCCAGAACUACAGAAAUGUAGUUGCCGAGGAGGAGGUUCAUCGAAUUUUCGGCGGAUGCCUCCAAA [A33C U47C] | < 1e-05 s⁻¹ | – | – | – | –
AUAAAAGCGCCAGAACUACAGAAAUGUAGUUGCCGAGGAGGAGGUUGAUCGAAUUUUCGGCGGAUGCCUCCAAA [A33C U47G] | < 1e-05 s⁻¹ | – | – | < 1e-05 s⁻¹ | –
AUAAAAGCGCCAGAACUACAGAAAUGUAGUUGCCGAGGAGGAGGUUUAUCGAAUCUCCGGCGGAUGCCUCCAAA [A33C U55C U57C] | < 1e-05 s⁻¹ | – | – | – | < 1e-05 s⁻¹
AUAAAAGCGCCAGAACUACAGAAAUGUAGUUGGCGCGGAGGAGGUUUAUCGAAUUUUCGGCGGAUGCCUCCAAA [A33G A36C] | < 1e-05 s⁻¹ | < 1e-05 s⁻¹ | – | < 1e-05 s⁻¹ | < 1e-05 s⁻¹
AUAAAAGCGCCAGAACUACAGAAAUGUAGUUGGCGAGGAGGAGGUUUAUCGCAUUUUCGGCGGAUGCCUUCAAA [A33G A52C C70U] | < 1e-05 s⁻¹ | – | – | – | < 1e-05 s⁻¹
AUAAAAGCGCCAGAACUACAGAAAUGUAGUUGGCGAGGAGGAGGUUUAUCGACUUUUCGGCGGAUGCCUCCAAA [A33G A53C] | < 1e-05 s⁻¹ | < 1e-05 s⁻¹ | < 1e-05 s⁻¹ | – | < 1e-05 s⁻¹

Variant | self-cleavage kobs at 40 uM GlcN6P [1] | self-cleavage kobs at 640 uM GlcN6P [2] | self-cleavage kobs at 2500 uM GlcN6P [3] | self-cleavage kobs at 160 uM GlcN6P [4] | self-cleavage kobs at 10000 uM GlcN6P [5]
AUAAAAGCGCCAGAACUACAGAAAUGUAGUUGGCGAGGAGGAGGUUUAUCGAAUUUUCGGCGGAUGCAUCCAAA [A33G C68A] | < 1e-05 s⁻¹ | – | – | – | –
AUAAAAGCGCCAGAACUACAGAAAUGUAGUUGGCGAAGAGGAGGUUUAUCGAAUUUUCGGCGGAUGCCUCCAAA [A33G G37A] | < 1e-05 s⁻¹ | – | < 1e-05 s⁻¹ | – | < 1e-05 s⁻¹
AUAAAAGCGCCAGAACUACAGAAAUGUAGUUGGCGAAGAGGAGGUUUAUCUAAUUUUCGGCGGAUGCGUCCAAA [A33G G37A G51U C68G] | < 1e-05 s⁻¹ | – | – | – | < 1e-05 s⁻¹
AUAAAAGCGCCAGAACUACAGAAAUGUAGUUGGCGAGAAGGAGGUUUAUCGAAUUUUCGGCGGAUGCCUCCAAA [A33G G38A] | < 1e-05 s⁻¹ | < 1e-05 s⁻¹ | – | – | < 1e-05 s⁻¹
AUAAAAGCGCCAGAACUACAGAAAUGUAGUUGGCGAGGACGAGGUUUAUCGAAUUUUCGGCGGAUGCCUCCAAA [A33G G40C] | < 1e-05 s⁻¹ | – | < 1e-05 s⁻¹ | – | –
AUAAAAGCGCCAGAACUACAGAAAUGUAGUUGGCGAGGAGGAUGUGUAUCGAAUUUUCUGCGGAUGCCUCCAAA [A33G G43U U46G G59U] | < 1e-05 s⁻¹ | – | – | – | –
AUAAAAGCGCCAGAACUACAGAAAUGUAGUUGGCGAGGAGGAGAUUUAUCGAAUUUUCGGCGGAUGCCUCCAAA [A33G G44A] | < 1e-05 s⁻¹ | < 1e-05 s⁻¹ | < 1e-05 s⁻¹ | < 1e-05 s⁻¹ | < 1e-05 s⁻¹
AUAAAAGCGCCAGAACUACAGAAAUGUAGUUGGCGAGGAGGAGGUUUAUCGAAUUUUCGGCGGAUACCUCCAAA [A33G G66A] | < 1e-05 s⁻¹ | – | – | < 1e-05 s⁻¹ | < 1e-05 s⁻¹
AUAAAAGCGCCAGAACUACAGAAAUGUAGUUGGCGAGGAGGAGGUGUAUCGAAUUUUCGGCGGAUGCCUCCAAA [A33G U46G] | < 1e-05 s⁻¹ | – | < 1e-05 s⁻¹ | – | < 1e-05 s⁻¹
AUAAAAGCGCCAGAACUACAGAAAUGUAGUUGUCGCGGAGGAGGUUUAUCGAAUUUUGGGCGGAUGCCCCCAAA [A33U A36C C58G U69C] | 4.07e-05 ± 2e-05 s⁻¹ | – | – | 7.32e-05 ± 1.9e-05 s⁻¹ | –
AUAAAAGCGCCAGAACUACAGAAAUGUAGUUGUCGCGGAGUAGGUCUAUCGAAUUUUCGGCGGAUGCCUCUAAA [A33U A36C G41U U46C C71U] | < 1e-05 s⁻¹ | – | < 1e-05 s⁻¹ | – | < 1e-05 s⁻¹
AUAAAAGCGCCAGAACUACAGAAAUGUAGUUGUCGUGGAGCAGGUUUAUCGAAUUUUCGGGGGAUGCCUCCAAA [A33U A36U G41C C61G] | < 1e-05 s⁻¹ | – | < 1e-05 s⁻¹ | – | –
AUAAAAGCGCCAGAACUACAGAAAUGUAGUUGUCGAGGUUGAGGUUUAUCGAAUUUUCGGCGGAUGCCUCCAAA [A33U A39U G40U] | < 1e-05 s⁻¹ | – | – | – | –
AUAAAAGCGCCAGAACUACAGAAAUGUAGUUGUCGAGGAGGUGGUUUAUCGAAUUUUCGGUGGAUGCCUCCAAA [A33U A42U C61U] | < 1e-05 s⁻¹ | – | – | – | –
AUAAAAGCGCCAGAACUACAGAAAUGUAGUUGUUGAGGAGGAGGUUUAUCGAAUUUUCGGCGGAUGCCUCCAAA [A33U C34U] | < 1e-05 s⁻¹ | < 1e-05 s⁻¹ | – | < 1e-05 s⁻¹ | < 1e-05 s⁻¹
